Reference: US20230265183A1 (MABWELL SHANGHAI BIOSCIENCE, published 2023)

T1: human Nectin-4 (human, UniProt Q96NY8 32-510)
T1 construct: whole, on cells; Cell-surface target of the FACS, endocytosis and proliferation assays (CHO-huNectin4 S8 cells, BT474 cells); the assay field says which cells; also called huNectin4; PVRL4
T1 sequence (looked up): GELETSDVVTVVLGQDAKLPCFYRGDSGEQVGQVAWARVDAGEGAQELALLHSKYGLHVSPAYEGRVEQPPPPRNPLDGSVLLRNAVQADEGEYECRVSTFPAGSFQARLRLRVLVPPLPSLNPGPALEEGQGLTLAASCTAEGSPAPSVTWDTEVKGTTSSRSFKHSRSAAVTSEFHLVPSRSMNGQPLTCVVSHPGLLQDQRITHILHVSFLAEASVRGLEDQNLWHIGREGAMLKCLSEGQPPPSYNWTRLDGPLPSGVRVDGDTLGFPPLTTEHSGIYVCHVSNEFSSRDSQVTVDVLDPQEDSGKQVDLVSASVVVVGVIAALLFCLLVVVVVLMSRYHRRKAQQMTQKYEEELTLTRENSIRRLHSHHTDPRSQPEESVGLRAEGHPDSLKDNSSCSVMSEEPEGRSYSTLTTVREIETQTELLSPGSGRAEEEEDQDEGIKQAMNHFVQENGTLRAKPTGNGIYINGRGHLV

T2: His-tagged human NECTIN4 (human, UniProt Q96NY8 32-349)
T2 construct: Antigen of the BIAcore assay; also called antigen; recombinant NECTIN4 protein; not shown: His tag
T2 sequence: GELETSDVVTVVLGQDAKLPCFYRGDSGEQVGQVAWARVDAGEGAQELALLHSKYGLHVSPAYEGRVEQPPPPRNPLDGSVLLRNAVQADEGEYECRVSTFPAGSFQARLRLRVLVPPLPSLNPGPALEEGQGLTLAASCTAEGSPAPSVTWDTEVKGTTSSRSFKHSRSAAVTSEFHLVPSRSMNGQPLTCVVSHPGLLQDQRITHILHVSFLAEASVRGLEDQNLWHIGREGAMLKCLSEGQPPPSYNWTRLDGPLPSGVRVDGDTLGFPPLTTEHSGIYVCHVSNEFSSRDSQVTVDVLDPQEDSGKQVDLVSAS

B1: 42D20 hz11 (antibody)
heavy: QVQLQESGPGLVKPSETLSLTCTVSGFSLIDYGVSWIRQPPGKGLEWIGVIWGDGKIYYNSVLKSRVTISKDNSKSQVSLKLSSVTAADTAVYYCAKQGGLLFYAMDYWGQGTLVTVSSASTKGPSVFPLAPSSKSTSGGTAALGCLVLDYFPEPVTVSWNSGALTSGVHTFPAVLQSSGLYSLSSVVTVPSSSLGTQTYICNVNHKPSNTKVDKRV[sequence of human IgG1 Fc with K274L K370L (EU numbers) omitted]
light: DIVMTQSPDSLAVSLGERATINCKSSQSLLNSYSQKNYLAWYQQKPGQSPKLLIYFASTRESGVPDRFSGSGSETDFTLTISSLQAEDLAVYFCQQHYNTPFTFGAGTKLELKRTVAAPSVFIFPPSDEQLKSGTASVVCLLNNFYPREAKVQWKVDNALQSGNSQESVTEQDSKDSTYSLSSTLTLSKADYEKHKVYACEVTHQGLSSPVTKSFNRGEC
notes: Humanized
B2: 42D20 hz13 (antibody)
heavy: B1 heavy
light: B1 light with S32T
notes: Humanized
B3: 42D20 hz11-E (antibody, human IgG1, kappa)
heavy: B1 heavy
light: DIVMTQSPDSLAVSLGERATINCKSSQSLLNSYSQKNYLAWYQQKPGQSPKLLIYFASTRESGVPDRFSGSGSETDFTLTISSLQAEDLAVYFCQQHYNTPFTFGAGTKLELKRRTVAAPSVFIFPPSDEQLKSGTASVVCLLNNFYPREAKVQWKVDNALQSGNSQESVTEQDSKDSTYSLSSTLTLSKADYEKHKVYACEVTHQGLSSPVTKSFNRGEC
modifications: vcMMAE conjugated to the TECP-reduced antibody; residues not stated; DAR 4.0±1
B4: 42D20 hz13-E (antibody, human IgG1, kappa)
heavy: B1 heavy
light: B3 light with S32T
modifications: vcMMAE conjugated to the TECP-reduced antibody; residues not stated; DAR 4.0±1

Columns and labels:
human Nectin-4 [1] = target: T1, human Nectin-4; assay: FACS on BT474 cells
Method: The solutions of different concentrations were added to 384-well plates, 10 µl per well.
BT474 cells (breast cancer cells) expressing Nectin-4 on the cell surface were collected by centrifugation at 100 g at room temperature for 5 minutes, and then the cells were washed with PBS containing 0.5% BSA once and were centrifuged at 100 g at room temperature for 5 minutes. […] After incubation at 4° C. for 1 hour, fluorescently labeled goat anti-human IgG secondary antibody was added. After continued incubation at 4° C. for 1 hour, mean fluorescence readings of the cell populations were analyzed by a flow cytometer.
The experiment results of the binding of engineered humanized molecules of the present disclosure to BT474 cells by FACS assay are shown in panels 3B and 3C in FIG. 3 and Tables 6 and 7.

His-tagged human NECTIN4 = target: T2, His-tagged human NECTIN4; assay: SPR (BIAcore S200), antigen on CAP chip, antibody as analyte, 1:1 fit
Method: Interactions between the antibodies and the antigen were measured using a BIAcore instrument S200 from GE. Referring to the instructions provided in Biotin Capture Kit from GE Healthcare, the analytical channel and the control sample channel on CAP sensor chip were first coupled with antigen i.e. His-tagged human NECTIN4, then samples containing antibodies (diluted 3-fold from an initial concentration of 20 nM respectively and solutions of each antibody of 8 concentrations were obtained totally, and the concentration 0.741 nM was set to be repeated) were allowed to flow through both the analytical channel and the sample channel, and the photoreactions upon antibody-antigen binding were measured. Association constant Kon and dissociation constant Koff and affinity constant KD of each antibody were finally obtained by instrument software fitting (1:1 binding mode) analysis.

human Nectin-4 [2] = target: T1, human Nectin-4; assay: cell-based or functional assay
human Nectin-4 [3] = target: T1, human Nectin-4; assay: cell-based or functional assay; remark: listed apart in the source

Row | Binder | EC50 (human Nectin-4 [1]) | Kd (His-tagged human NECTIN4) | koff (His-tagged human NECTIN4) | kon (His-tagged human NECTIN4) | Endocytosis efficiency (%) (human Nectin-4 [2]) | EC50 (ng/ml), inhibition of proliferation of BT474 cells (human Nectin-4 [3]) | Percentage of cell killing at the highest concentration (human Nectin-4 [3])
1 | B1 | 56100 ng/mL | 0.96 nM | 0.00115 s⁻¹ | 1.19e+06 M⁻¹ s⁻¹ | 52.5% |  | 
2 | B2 |  | 0.904 nM | 0.00108 s⁻¹ | 1.19e+06 M⁻¹ s⁻¹ | 53.8% |  | 
3 | B3 |  |  |  |  |  | 4.41 ng/mL | 31.8%
4 | B4 |  |  |  |  |  | 4.37 ng/mL | 32.1%

Residue numbers refer to the chain shown, from its start.
